Hit rate of the full screen: of about 320,000 compounds, about 9,100 (2.8%) were called active. This list was built around the results that the source calls inconclusive (neither active nor inactive); the mix of calls is not that of the screen. Calls follow the shape of the dose curve; as a rule, active = well fitted activation curve with a large enough effect; inconclusive = small, poorly fitted or top-dose-only effect; inactive = no such curve, though single readings can be large or run the other way. A potency beside an inconclusive call is a rough fit, not a confirmed value.
Assay: qHTS Assay for Rab9 Promoter Activators; also: nearly all actives have a fitted effect of over 60% in size
Conditions: Huh7 Rab9 promoter-luciferase reporter, luminescence, 24 h; series mostly up to 9.22 µM
In short: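 Luciferase signal after 10 min detection reagent at ambient indicates Rab9 promoter upregulation; stably transfected Huh7 cells were treated 24 h with compound in DMSO at 37 °C, 5% CO2.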
Potency is read from the fitted curve at half-maximal effect; tags tell the direction and shape of the fitted curve.

Potency, inactive:
C=CCN1C(=O)/C(=C\C(C)=C\c2ccccc2)SC1=S
O=S(=O)(NC[C@@H]1CCC[C@H](CNS(=O)(=O)c2c(F)cccc2F)C1)c1ccc2c(c1)OCCO2
COc1ccc(/C=C/C(=O)c2cc(Cl)ccc2O)c(OC)c1
COc1cccc(NC(=O)C(=O)c2cn(CC(=O)N3CCCC3)c3ccccc23)c1

Potency, active:
O=C(CNC(=O)c1ccccc1)OC1CCCCC1 0.891 µM
COc1ccc(Cn2c(SCC#N)nc3ccc(N4CCOCC4)cc3c2=O)cc1 3.55 µM

Potency, inconclusive:
Cc1cc(/C=C2\SC(=S)NC2=O)c(C)n1C1CC1 2.51 µM [activator, partial curve]
CCOC(=O)c1[nH]c2ccc(OC)cc2c1C 3.55 µM [activator, single point]
COc1ccc(-c2csc(NC(=O)CC(C)C)n2)cc1 5.01 µM [activator, single point]
C(=C\c1ccccc1)/C=N/N1CCN(Cc2ccccc2)CC1 5.62 µM [activator, single point]
CN(C(=O)c1cccc(Nc2ccc(-c3ccc4c(c3)OCCO4)nn2)c1)C1CCCCC1 1.26 µM [activator, partial curve]
COc1nc(NCCN2CCOCC2)nc(Nc2ccccc2)n1 2.82 µM [activator, partial curve]
OC1CCCN(c2c3c(nc4cc(-c5cccc(F)c5)nn24)CCCC3)C1 (stereo not given) 5.62 µM [activator, single point]
O=S(=O)(c1ccccc1)N1CCN(c2nc3ccccc3s2)CC1 3.55 µM [activator, single point]
Cc1cc(NC(=O)c2cc(C3CC3)on2)no1 5.62 µM [activator, single point]
O=C(NCCc1ccc(Cl)cc1)c1cnc2n(c1=O)CCS2 3.16 µM [activator, single point]
COc1ccc(NC(=O)c2ccc(C)o2)c([N+](=O)[O-])c1 3.98 µM [activator, single point]
CCCCN1CCc2c([nH]c3c(C)cccc23)C1=O 5.01 µM [activator, single point]
Oc1[nH]c2ccccc2c1N=Nc1ncnc2c1oc1ccccc12 2.24 µM [activator, partial curve]
C(=N\Nc1ncnc2nc[nH]c12)/c1cccs1 3.55 µM [activator, single point]
